The other results are listed elsewhere or left out.
Tests used:
Assay in all cases: glycan array binding signal (z-score within array); higher = stronger binding
Settings in all cases: glycan notation: IUPAC condensed, linker removed
[1] = molecular target: Neu5Ac(a2-6)Gal(b1-4)GlcNAc(b1-2)Man(a1-3)[Man(a1-6)]Man(b1-4)GlcNAc(b1-4)GlcNAc
Procedure, shortened: (§1)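 Columns mapping to the same glycan were averaged after glycan names were converted to IUPAC-condensed notation. The data come from 3228 arrays in the Consortium for Functional Glycomics database, limited to those with an available protein sequence. Binding is reported as a within-array Z-score averaged across arrays of one protein sequence and across linkers.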

[2] = molecular target: Neu5Ac(a2-6)Gal(b1-4)GlcNAc(b1-2)Man(a1-3)[Neu5Ac(a2-3)Gal(b1-4)GlcNAc(b1-2)Man(a1-6)]Man(b1-4)GlcNAc(b1-4)GlcNAc
Procedure, shortened: as §1

[3] = molecular target: Neu5Ac(a2-6)Gal(b1-4)GlcNAc(b1-2)Man(a1-3)[Neu5Ac(a2-6)Gal(b1-4)GlcNAc(b1-2)Man(a1-6)]Man(b1-4)GlcNAc(b1-4)GlcNAc
Procedure, shortened: as §1

[4] = molecular target: Neu5Ac(a2-6)Gal(b1-4)GlcNAc(b1-2)Man(a1-3)[Neu5Ac(a2-6)Gal(b1-4)GlcNAc(b1-2)Man(a1-6)]Man(b1-4)GlcNAc(b1-4)[Fuc(a1-6)]GlcNAc
Procedure, shortened: as §1

[5] = molecular target: Neu5Ac(a2-6)Gal(b1-4)GlcNAc(b1-2)Man(a1-6)Man(b1-4)GlcNAc(b1-4)GlcNAc
Procedure, shortened: as §1

[6] = molecular target: Neu5Ac(a2-6)Gal(b1-4)GlcNAc(b1-2)Man(a1-6)[Gal(b1-4)GlcNAc(b1-2)Man(a1-3)]Man(b1-4)GlcNAc(b1-4)GlcNAc
Procedure, shortened: as §1

[7] = molecular target: Neu5Ac(a2-6)Gal(b1-4)GlcNAc(b1-2)Man(a1-6)[GlcNAc(b1-2)Man(a1-3)]Man(b1-4)GlcNAc(b1-4)GlcNAc
Procedure, shortened: as §1

[8] = molecular target: Neu5Ac(a2-6)Gal(b1-4)GlcNAc(b1-2)Man(a1-6)[Man(a1-3)]Man(b1-4)GlcNAc(b1-4)GlcNAc
Procedure, shortened: as §1

[9] = molecular target: Neu5Ac(a2-6)Gal(b1-4)GlcNAc(b1-2)[Neu5Ac(a2-6)Gal(b1-4)GlcNAc(b1-4)]Man(a1-3)[GlcNAc(b1-4)][Neu5Ac(a2-6)Gal(b1-4)GlcNAc(b1-2)[Neu5Ac(a2-6)Gal(b1-4)GlcNAc(b1-6)]Man(a1-6)]Man(b1-4)GlcNAc(b1-4)GlcNAc
Procedure, shortened: as §1

[10] = molecular target: Neu5Ac(a2-6)Gal(b1-4)GlcNAc(b1-2)[Neu5Ac(a2-6)Gal(b1-4)GlcNAc(b1-4)]Man(a1-3)[GlcNAc(b1-4)][Neu5Ac(a2-6)Gal(b1-4)GlcNAc(b1-4)Man(a1-6)]Man(b1-4)GlcNAc(b1-4)GlcNAc
Procedure, shortened: as §1

[11] = molecular target: Neu5Ac(a2-6)Gal(b1-4)GlcNAc(b1-2)[Neu5Ac(a2-6)Gal(b1-4)GlcNAc(b1-6)]Man(a1-6)[Neu5Ac(a2-6)Gal(b1-4)GlcNAc(b1-2)Man(a1-3)][GlcNAc(b1-4)]Man(b1-4)GlcNAc(b1-4)GlcNAc
Procedure, shortened: as §1

[12] = molecular target: Neu5Ac(a2-6)Gal(b1-4)GlcNAc(b1-3)Gal(b1-3)GlcNAc
Procedure, shortened: as §1

[13] = molecular target: Neu5Ac(a2-6)Gal(b1-4)GlcNAc(b1-3)Gal(b1-4)GlcNAc
Procedure, shortened: as §1

[14] = molecular target: Neu5Ac(a2-6)Gal(b1-4)GlcNAc(b1-3)Gal(b1-4)GlcNAc(b1-2)Man(a1-3)[Neu5Ac(a2-6)Gal(b1-4)GlcNAc(b1-3)Gal(b1-4)GlcNAc(b1-2)Man(a1-6)]GalNAc
Procedure, shortened: as §1

[15] = molecular target: Neu5Ac(a2-6)Gal(b1-4)GlcNAc(b1-3)Gal(b1-4)GlcNAc(b1-3)Gal(b1-4)GlcNAc
Procedure, shortened: as §1

[16] = molecular target: Neu5Ac(a2-6)Gal(b1-4)GlcNAc(b1-3)Gal(b1-4)GlcNAc(b1-3)Gal(b1-4)GlcNAc(b1-2)Man(a1-3)[Neu5Ac(a2-6)Gal(b1-4)GlcNAc(b1-3)Gal(b1-4)GlcNAc(b1-3)Gal(b1-4)GlcNAc(b1-2)Man(a1-6)]GalNAc
Procedure, shortened: as §1

[17] = molecular target: Neu5Ac(a2-6)Gal(b1-4)GlcNAc(b1-3)Gal(b1-4)GlcNAc(b1-3)GalNAc
Procedure, shortened: as §1

[18] = molecular target: Neu5Ac(a2-6)Gal(b1-4)GlcNAc(b1-3)Gal(b1-4)GlcNAc(b1-3)[Neu5Ac(a2-6)Gal(b1-4)GlcNAc(b1-3)Gal(b1-4)GlcNAc(b1-6)]GalNAc
Procedure, shortened: as §1

[19] = molecular target: Neu5Ac(a2-6)Gal(b1-4)GlcNAc(b1-3)Gal(b1-4)GlcNAc(b1-6)[Gal(b1-3)]GalNAc
Procedure, shortened: as §1

[20] = molecular target: Neu5Ac(a2-6)Gal(b1-4)GlcNAc(b1-3)Gal(b1-4)[Fuc(a1-3)]GlcNAc(b1-3)Gal(b1-4)[Fuc(a1-3)]GlcNAc
Procedure, shortened: as §1

[21] = molecular target: Neu5Ac(a2-6)Gal(b1-4)GlcNAc(b1-3)GalNAc
Procedure, shortened: as §1

[22] = molecular target: Neu5Ac(a2-6)Gal(b1-4)GlcNAc(b1-3)[Neu5Ac(a2-6)Gal(b1-4)GlcNAc(b1-6)]GalNAc
Procedure, shortened: as §1

[23] = molecular target: Neu5Ac(a2-6)Gal(b1-4)GlcNAc(b1-6)GalNAc
Procedure, shortened: as §1

[24] = molecular target: Neu5Ac(a2-6)Gal(b1-4)GlcNAc(b1-6)[Gal(b1-3)GlcNAc(b1-3)]Gal(b1-4)Glc
Procedure, shortened: as §1

[25] = molecular target: Neu5Ac(a2-6)Gal(b1-4)GlcNAc(b1-6)[Gal(b1-3)]GalNAc
Procedure, shortened: as §1

[26] = molecular target: Neu5Ac(a2-6)Gal(b1-4)GlcNAc6S
Procedure, shortened: as §1

[27] = molecular target: Neu5Ac(a2-6)GalNAc
Procedure, shortened: as §1

[28] = molecular target: Neu5Ac(a2-6)GalNAc(b1-4)GlcNAc
Procedure, shortened: as §1

[29] = molecular target: Neu5Ac(a2-6)GalNAc(b1-4)GlcNAc6S
Procedure, shortened: as §1

[30] = molecular target: Neu5Ac(a2-6)GlcNAc(b1-4)GlcNAc
Procedure, shortened: as §1

[31] = molecular target: Neu5Ac(a2-6)GlcNAc(b1-4)GlcNAc(b1-4)GlcNAc
Procedure, shortened: as §1

B1: PX14343A-bvu-539-29-539 (Bacteroides vulgatus) (protein)
chain: DSLTESSSNTFWQTPDDALMALASCYDALQSNQLYNSDQYSLGPLYMDCISDNGGHFNWSGWMEGYDMAMGIHTPSSSIIGSYWKDCYEVISRCNVLIANIDRVDMDASQKAIYQAEAKTIRALMYINLTMTYQDVPFLTAPLTIDEAECEKTDRAAIVAHVMTDLQDAAEVLPQNASSRGHITKGAALSLLGRVALYNEKWDDAIAAYKQVQGLGYSLDPSYAKLFTQSGETSPEIIFAVRYEGPGMSEGAAFNAHWNTPLEAMNGTIDLADAYYCKDGKPTTDTKIAELNGGGGLDVSKPNPAHFENRDPRLYSTLFVPGMLWNGKGGIDTSASNPYANVYGGAAASLSTVYVYKYFDPTDTSNSWDNGQDFYVVRYAEVLLSLAEAMVQKGGYVYSDVTALVNEVRQRADVNMPTVEEVEGTSLSKDELLEVIKHERRVELAFEGLRLFDLYRWKELDKAVANIENERTMYGLAYEARKFNGERDYVWPLPTAELDTNKKLVQHDLWK
glycan array binding signal (z-score) [1]: -0.347 | glycan array binding signal (z-score) [2]: -0.208 | glycan array binding signal (z-score) [3]: -0.234 | glycan array binding signal (z-score) [4]: 0.105 | glycan array binding signal (z-score) [5]: 0.357 | glycan array binding signal (z-score) [6]: -0.214 | glycan array binding signal (z-score) [7]: -0.215 | glycan array binding signal (z-score) [8]: -0.336 | glycan array binding signal (z-score) [9]: -0.133 | glycan array binding signal (z-score) [10]: 0.349 | glycan array binding signal (z-score) [11]: -0.352 | glycan array binding signal (z-score) [12]: -0.135 | glycan array binding signal (z-score) [13]: -0.413 | glycan array binding signal (z-score) [14]: -0.266 | glycan array binding signal (z-score) [15]: -0.181 | glycan array binding signal (z-score) [16]: 0.481 | glycan array binding signal (z-score) [17]: -0.463 | glycan array binding signal (z-score) [18]: -0.114 | glycan array binding signal (z-score) [19]: 0.108 | glycan array binding signal (z-score) [20]: 0.423 | glycan array binding signal (z-score) [21]: -0.311 | glycan array binding signal (z-score) [22]: -0.471 | glycan array binding signal (z-score) [23]: -0.071 | glycan array binding signal (z-score) [24]: -0.434 | glycan array binding signal (z-score) [25]: -0.242 | glycan array binding signal (z-score) [26]: -0.298 | glycan array binding signal (z-score) [27]: -0.267 | glycan array binding signal (z-score) [28]: -0.273 | glycan array binding signal (z-score) [29]: -0.16 | glycan array binding signal (z-score) [30]: -0.249 | glycan array binding signal (z-score) [31]: -0.062
